Experimental data published in PubChem BioAssay AID1963576 (National Center for Advancing Translational Sciences (NCATS), 2024).
About 60 (0.1%) of roughly 46,000 compounds were called active. About 3% were inconclusive and are not listed. Calls follow the shape of the dose curve; as a rule, active = well fitted inhibition curve with a large enough effect; inconclusive = small, poorly fitted or top-dose-only effect; inactive = no such curve, though single readings can be large or run the other way. This is one part of the list.

test: Primary qHTS assay for Inhibitors of ovarian cancer metastasis using an organotypic tumor microenvironment (TME) model.; also: nearly all actives have a fitted effect of over 65% in size;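 as to activity change, negative = inhibition: plate controls were DMSO wells for no effect and tomatine positive control wells for full effect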; details: SKOV3ip1-GFP adhesion/invasion on 3D omental model, fluorescence; series mostly up to 45.8 µM; activity change, negative = inhibition: at the top concentration
In short: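 Adhesion/invasion was scored as fixed GFP-labeled SKOV3ip1 cell counts (488/509 nm), normalized to DMSO and tomatine controls. Cancer cells in serum-free medium, with four compound doses (0.36-46 umol/L), sat 2 hr at RT then 16 hr at 37 C on a 48 hr fibroblast/mesothelial/ECM culture.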

Activity change, negative = inhibition, inactive:
CCOc1ccc(-n2c(C)nc3cc(C(=O)NCCC4=CCCCC4)ccc32)cc1 4.63%
CCCC1OC2C[C@@H]3[C@H]4CCC5=CC(=O)C=C[C@]5(C)[C@H]4C(O)C[C@]3(C)[C@]2(C(=O)CO)O1 (stereo partly specified) 4.74%
Cc1ccc(C(C)(C)C)c(OCC(=O)NCCc2nc3ccccc3[nH]2)c1 0.478%
CN(Cc1ccccc1)S(=O)(=O)c1ccc(F)c(C(=O)Nc2cccc(Cl)c2Cl)c1 -3.1%
COc1ccc(-c2nc3sc(CCNC(=O)c4cc(Cl)ccc4OC)c(C)n3n2)cc1 43.1%
Cc1ccccc1NS(=O)(=O)c1ccc(Br)s1 9.54%
Cc1c(/C=C(\C#N)C(=O)Nc2cccc(Cl)c2)c2ccccc2n1Cc1ccccc1Cl -2.43%
CCOc1ccc(C2=NC(c3cccs3)=Nc3ccc(C(C)C)cc3N2)cc1 -5.2%
Cc1cccc(CC2C(=O)Nc3ccccc32)c1 (stereo unspecified) -13.3%
CCN(CC)c1cc2c(cc1F)c(=O)c(S(=O)(=O)c1cc(C)ccc1C)cn2Cc1ccccc1 -0.204%
COc1ccccc1N1CCN(c2ncnc3c2cnn3C)CC1 -5.88%
CCOc1ccc(C2c3cc(OCC)c(OCC)cc3CC(=O)N2c2ccc(C(=O)O)cc2)cc1OCC (stereo unspecified) -9.37%
CCc1ccc(C(=O)COC(=O)C(Cc2c[nH]c3ccccc23)NC(=O)c2ccc(Br)cc2)cc1 (stereo unspecified) 2.19%
COc1ccc(S(=O)(=O)N(CCc2ccccc2)CC(=O)Nc2cccc(OC)c2)cc1 -0.847%
CCOc1ccc(C2CC(=O)c3c([nH]c(C(=O)OCc4ccccc4)c3C)C2)cc1 (stereo unspecified) -6.17%
Cc1nc2ccc(S(=O)(=O)N(C)CC(=O)Nc3ccc(Br)c(C)c3)cc2s1 9.32%
CCc1cccc(C)c1NC(=O)Cn1ccn(-c2ccc(F)cc2)c(=O)c1=O 6.96%
COc1ccc(CCN2C(=O)c3oc4ccc(F)cc4c(=O)c3C2c2ccc(C(C)(C)C)cc2)cc1 (stereo unspecified) 11.9%
COc1ccc(S(=O)(=O)N2CCC(n3c(C(F)(F)F)nc4cccnc43)CC2)cc1OC -16.6%
COc1ccc(C(=O)CN2C(=O)N(c3ccc(C(C)=O)cc3)S(=O)(=O)c3ccccc32)cc1 -17.3%

outcome, inactive:
COc1ccc(CNC(=O)CCC(=O)N2CCSc3ccccc32)cc1
CCN1CCN(c2ccc(NS(=O)(=O)c3c(C)nc4sccn4c3=O)cc2Cl)CC1
CCOc1ccccc1-n1nnc(-c2nc(-c3ccccc3)no2)c1N
CCOC(=O)c1cccc(NC(=O)C2CCN(S(=O)(=O)c3ccc4c(c3)oc(=O)n4C)CC2)c1
Cc1ccc(Cn2nnc(C(=O)Nc3ccc(F)c(F)c3)c2N)cc1
CCOC(=O)N1CCc2c(sc3c2c(=O)n(CCc2ccccc2)c(=O)n3Cc2ccc(F)cc2)C1
